Data reported in PubChem BioAssay AID995 (National Center for Advancing Translational Sciences (NCATS), 2007).
Screen size: about 72,000 compounds; about 710 (0.99%) were called active. This list was built around the results that the source calls inconclusive (neither active nor inactive); the mix of calls is not that of the screen. Calls come from the whole dose curve; as a rule, active = well fitted inhibition curve with a large enough effect; inconclusive = small, poorly fitted or top-dose-only effect; inactive = no such curve, though single readings can be large or run the other way. Potencies of inconclusive entries are left out as doubtful fits.

Assay: qHTS Assay for Inhibitors of the ERK Signaling Pathway using a Homogeneous Screening Assay; note: nearly all actives have a fitted effect of over 55% in size
Conditions: HEK293-V1b, vasopressin-stimulated pERK AlphaScreen; activity, negative = inhibition: at 57.5 µM (top of the series) unless noted
Procedure, shortened: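 Phosphorylated ERK1/2 detected via AlphaScreen bead proximity in lysates of V1b-expressing HEK293 cells given 25 nM vasopressin for 5 min after 30 min compound exposure (37 °C). AC50 from Hill equation; basal DMSO 0%, vasopressin 100%.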
% is set by controls: 0 for no effect and ±100 for the full control effect; potency is the fitted concentration of half-maximal effect; tags give direction and shape of the fitted curve.

Row | Compound | Potency | activity, negative = inhibition
1 | C=CCn1c(SCC(=O)Nc2c(C)cccc2C)nnc1-c1ccncc1 | inconclusive [inhibitor, partial curve] | 
2 | Cc1nc2cnc(N3CCOCC3)nc2n(CCc2ccccc2)c1=O | inconclusive [inhibitor, partial curve] | 
3 | CCCCCCn1c(SCC(C)C)nc2c1c(=O)[nH]c(=O)n2C | inactive | 
4 | NC(Cc1ccccc1)=NCC(=O)O |  | inactive: 7.48% [at 11.5 µM]
5 | O=C(c1cc(-c2ccco2)on1)N1CCN(c2ccccc2)CC1 | inactive | 
6 | Cc1cccc(N2CCN(C(=O)C3CCN(S(=O)(=O)c4cccc5nsnc45)CC3)CC2C)c1 (stereo not given) | inactive | 
7 | CCCCCCC(=O)N1CCC(c2nc3c(nnn3Cc3ccccc3Cl)c(=O)[nH]2)CC1 | inconclusive [inhibitor, single point] | 
8 | N#Cc1cccc(NC(=O)N2CCC3(CC2)CCN(C(=O)c2cnccn2)CC3)c1 | inactive | 
9 | COc1cccc(NS(=O)(=O)c2ccc(Br)s2)c1 | inactive | 
10 | COc1ccc(-c2csc3c2[N+]2=CCC=C2C3=O)cc1 |  | inactive: -4.17% [at 11.5 µM]
11 | O=C(NCCN1CCOCC1)c1cccc(Cl)c1 | inactive | 
12 | CCn1cc(C(=O)NC2CCCCCC2)c2cc(OC)c(OC)cc2c1=O | inconclusive [inhibitor, partial curve] | 
13 | O=C(CSc1nccn1Cc1ccccc1)Nc1nccs1 | inconclusive [inhibitor, partial curve] | 
14 | Cn1c(=O)oc2cc(S(=O)(=O)NC(Cc3ccccc3)C(=O)N3CCCCC3)ccc21 (stereo not given) | inconclusive [inhibitor, single point] | 
15 | C/C(CCN1CCCCc2nc(C)c(C)cc21)=N\O[C@@H](C)c1cc(-c2c(C)cc(C)cc2C)no1 |  | inactive: 12.7% [at 11.5 µM]
16 | CCOc1ccc(OCC)c(NC(=O)CSc2nc3c(c(=O)n(C)c(=O)n3C)n2C(C)C)c1 | inconclusive [inhibitor, single point] | 
17 | CNC(=O)N(C1=NCC(C)S1)c1ccc(F)cc1F (stereo not given) | inconclusive [inhibitor, partial curve] | 
18 | COc1cc(/C=C(\C#N)C(=O)c2ccc(O)c(O)c2)cc(I)c1O | inconclusive [inhibitor, partial curve] | 
19 | COc1ccc(OCc2nnc3n2N=C(c2ccc(OC)cc2)CS3)cc1 | active: 25.1 µM | 
20 | COc1ccc(NC(=O)c2ccco2)cc1NC(=O)c1cccs1 | inconclusive [inhibitor, single point] | 
21 | CS(=O)(=O)c1ccc(CNC(=O)[C@@H]2C[C@H]2[C@@H](NP(=O)(c2ccccc2)c2ccccc2)c2ccccc2)cc1 | inactive | 
22 | Cc1ccc(C)c(/C(O)=C2/C(=O)C(=O)N(CCN3CCOCC3)C2c2ccc(C)o2)c1 (stereo not given) | inconclusive [inhibitor, single point] | 

Row | Compound | Potency | activity, negative = inhibition
23 | COc1ccc(CCN2C(=O)CC(Nc3ccc(N4CCOCC4)cc3)C2=O)cc1OC (stereo not given) | inconclusive [inhibitor, partial curve] | 
24 | CCCn1c(SCC(=O)N2CCc3ccccc3C2)nc2c1c(=O)n(C)c(=O)n2C | inconclusive [inhibitor, partial curve] | 
25 | O=C(c1ccco1)N1CCN(c2ncnc3c(-c4ccccc4)nsc23)CC1 | active: 25.1 µM | 
26 | c1ccc(-c2cc(-c3nc(-c4ccccn4)no3)c3ccccc3n2)cc1 | inconclusive [inhibitor, partial curve] | 
27 | CCOc1cc(-c2noc(N)c2C(=O)OC)cc(OCC)c1OCC | inconclusive [inhibitor, partial curve] | 
28 | Cc1ccc(S(=O)(=O)NC2(C(F)(F)F)C(=O)Nc3c2c(=O)n(C)c(=O)n3C)cc1 (stereo not given) | inconclusive [inhibitor, partial curve, poor fit] | 
29 | CCOc1ccc(NC(=O)CSc2nc3cccnc3n2CC)cc1 | inconclusive [inhibitor, single point] | 
30 | Cc1sc(NC(=O)CSc2nc(N)n(CC(=O)c3ccccc3)n2)c(C#N)c1C | inactive | 
31 | CCOC(=O)C(C#N)C(c1cccnc1)c1c(C)[nH][nH]c1=O (stereo not given) | inconclusive [inhibitor, partial curve] | 
32 | CCn1c(N2CCC(Cc3ccccc3)CC2)nc2c1c(=O)[nH]c(=O)n2C | inconclusive [inhibitor, single point] | 
33 | Cc1nc(NC(=O)CSc2ccccc2N)sc1C | inconclusive [inhibitor, single point] | 
34 | Cc1nn(Cc2ccccc2)c(C)c1NC(=O)c1cc2nc(-c3ccco3)cc(C(F)(F)F)n2n1 | inconclusive [inhibitor, partial curve] | 
35 | O=C(c1ccco1)N(CCCN1CCOCC1)c1nc(-c2ccc(F)cc2)cs1 | inconclusive [inhibitor, single point] | 
36 | O=C(c1ccco1)[C@@H]1[C@@H]2C(=O)N(c3ccccc3)C(=O)[C@@H]2C2c3ccccc3C=CN21 (stereo not given in full) | inactive | 
37 | O=C(CSc1nc2ccccc2c(=O)n1Cc1ccco1)N1CCCCCC1 | inconclusive [inhibitor, single point] | 
38 | COC(=O)[C@@H]1[C@@H]2C[C@H]3c4[nH]c5ccccc5c4CCN3C[C@@H]2CC[C@@H]1OS(=O)(=O)O |  | inactive: 4.82% [at 11.5 µM]
39 | O=C(Nc1cccc(F)c1)C1CC(=O)N(c2ccc(Br)cc2)C1 (stereo not given) | inconclusive [inhibitor, partial curve] | 
40 | CCSc1ncnc2c(C#N)c3n(c12)CCCCC3 | inconclusive [inhibitor, partial curve] | 
41 | C=C[C@](C)(O)CCC1C(=C)CC(OC(C)=O)C2C(C)(C)CCCC12C (stereo not given in full) | inconclusive [inhibitor, single point] | 
42 | COC(=O)C/C=C\[C@@H](C)[C@@H](/C=N\OC[C@@H](C)[C@H](OCc1ccccc1)C(C)C)NS(=O)(=O)c1ccc(C)cc1 |  | inactive: 9.95% [at 11.5 µM]
43 | COc1ccc(N2CCN(C(c3cccs3)C(C)NC(=O)c3ccco3)CC2)cc1 (stereo not given) | inconclusive [inhibitor, partial curve] | 
44 | Cc1ccc(N2CC(C(=O)N3CCc4ccccc4C3)CC2=O)cc1 (stereo not given) | inconclusive [inhibitor, full curve, poor fit] | 

Row | Compound | Potency | activity, negative = inhibition
45 | c1ccc2c(c1)oc1c(NCCCn3ccnc3)ncnc12 | inactive | 
46 | CC(=O)Oc1cc(OC(C)=O)c2c(=O)cc(-c3ccc(OC(C)=O)c(OC(C)=O)c3)oc2c1 | inconclusive [inhibitor, single point] | 
47 | CC(=O)c1ccc(NS(=O)(=O)Cc2ccccc2)cc1 | inactive | 
48 | COc1ccc(C(=O)Nc2nccs2)cc1OC | inconclusive [inhibitor, single point] | 
49 | CCOC(=O)N1CCC(Nc2nc3ccccc3n3nnnc23)CC1 | inconclusive [inhibitor, partial curve] | 
50 | Cc1nc(SCC(=O)c2ccc(F)cc2)n[nH]1 | inconclusive [inhibitor, partial curve] | 
51 | Cn1cc(SCC(=O)Nc2nc3ccccc3s2)c2ccccc21 | inconclusive [inhibitor, partial curve] | 
52 | Cc1cc(N2CCN(c3ccccc3)CC2)nc(-c2ccccc2)n1 | inconclusive [inhibitor, partial curve] | 
53 | Nc1nonc1C(=O)NCCNCc1cc(Br)ccc1OCc1ccccc1F | inconclusive [inhibitor, partial curve] | 
54 | COc1ccc(NC(=O)CSc2nnc(Cc3cccn3C)n2-c2ccc(F)cc2)cc1OC | inconclusive [inhibitor, single point] | 
55 | CCOC(=O)N1CCN(C(=O)c2ccc3c(=O)n(Cc4ccc(Cl)cc4)c(=S)[nH]c3c2)CC1 | inconclusive [inhibitor, partial curve, poor fit] | 
56 | O=C(Cn1ncc2c1-c1ccccc1OC2)Nc1nc2ccccc2s1 | inconclusive [inhibitor, partial curve] | 
57 | COc1ccc(-c2coc3cc(O)ccc3c2=O)cc1OC | inconclusive [inhibitor, partial curve, poor fit] | 
58 | C=C(CO)C1Cc2c(ccc3c2OC2COc4cc(OC)c(OC)cc4C2C3=O)O1 (stereo not given) | inconclusive [inhibitor, single point] | 
59 | CCn1c(CNc2ccc(F)cc2)nnc1SCC(=O)Nc1ccc(OC)cc1OC | inconclusive [inhibitor, single point] | 
60 | CC(C)CC(=O)Nc1ccc(OCC(=O)O)cc1 | inconclusive [inhibitor, single point] | 
61 | O=C(O)c1cc(O)c2c(c1)C(=O)c1cc(O)cc(O)c1C2=O | inconclusive [inhibitor, partial curve, poor fit] | 
62 | Nc1nnc(SCc2ccccc2Cl)s1 | inconclusive [inhibitor, single point] | 
63 | CCC(C)[C@@H](C(=O)Nc1ccc2c(c1)OCO2)N1Cc2ccccc2C1=O (stereo not given in full) | inconclusive [inhibitor, partial curve] | 
64 | Cc1cc(C)n(-c2nc3ccccc3c(=O)n2OCC(=O)Nc2c(C)cccc2C)n1 | inconclusive [inhibitor, partial curve] | 
65 | COc1ccc(N2C(=O)CSC2c2ccc3c(c2)OCO3)c(OC)c1 (stereo not given) | inconclusive [inhibitor, single point] | 
